Data on 59 molecules can be found in PubChem BioAssay AID602156 (GNF / Scripps Winzeler lab, 2011).

Some of the results follow. Further columns of the screen follow, without active or inactive calls.

This test can be described thus: exo-erythrocytic parasite development inhibition – imaging, Malaria Box, P. yoelii, HepG2-A16-CD81EGFP, dose response (AID 602156).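 Also: infected cells exposed to compound for 48 hours before fixation.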 The settings on record: P. yoelii liver stage in HepG2-A16-CD81EGFP, measured here: liver parasite size at 10 uM.
On to `COc1ccc(C2CC(=O)C3=C(C2)NC(C)=C(C(=O)OC(C)C)C3c2cccc(C)c2)cc1OC` (centres undefined), for which the parasite size turned out to be 90.9 um.
The molecule `CCOc1ccc(N2C(N)=NC(N)=NC2(C)C)cc1` yielded a parasite size of 35.6 um.
`CCCCCCOc1ccc(C(C)=NNC2=NCCN2)cc1[N+](=O)[O-]` gave a parasite size of 61 um.
As to `FC(F)(F)c1ccccc1NC(=S)N1CCCN(c2nc3ccc(Cl)cc3s2)CC1`, the parasite size was found to be 91.8 um.
In turn, `Cc1cccc(-c2cc3nc(C)c(C)c(=O)n3[nH]2)c1` displayed a parasite size of 67.4 um.
`c1ccc2c(NCCc3cnc[nH]3)c3ccccc3nc2c1`: the parasite size is 110 um.
`O=C1C2=C(Nc3ccccc3SC2c2ccc(OCc3ccccc3)cc2)c2ccccc21` (centres undefined) had a parasite size of 23.2 um.
Consider `Cc1cc(OC(C)C(=O)N2CCc3ccccc32)ccc1Cl` (centres undefined), for which the parasite size came to 59.6 um.
The value for `CCOC(=O)c1cnc2ccc(OC)cc2c1Cl` was 31 um; that for `O=C(Nc1ccc(Oc2cccc(Oc3ccc(NC(=O)c4ccc(Br)o4)cc3)c2)cc1)c1ccc(Br)o1` was 18.8 um.
As to `CCOC(=O)c1ccc(NC(=O)CSc2nc(NCc3ccccc3)c3ccccc3n2)cc1`, the parasite size amounted to 69.2 um.
On to `COc1ccc2nc(-c3ccccc3)cc(NCCN(C)C)c2c1`, for which the parasite size was 69.1 um.
The value for `CCN(CC)CCCN(Cc1cc2cc(OC)c(OC)cc2[nH]c1=O)C(=S)Nc1cccc(Cl)c1` was 60.5 um.
The value for `CC(Oc1ccc(Cl)cc1Cl)c1nc(-c2ccc(NC(=O)c3cccs3)cc2)no1` (centres undefined) was 21.9 um; that for `CCC(C)(C)c1ccc(OCCCC[n+]2cccc(C)c2C)c(C(C)(C)CC)c1` was 12.5 um; that for `Cc1cn2c3ccccc3n(CCN3CCCC3)c2n1` was 126 um.
The molecule `COc1ccc2nc(C)cc(Nc3ccc(Oc4ccc(Cl)c5ccccc45)c(Cl)c3)c2c1` yielded a parasite size of 22.6 um.
`COc1ccc2nc(C)cc(Nc3ccc(Oc4ccc5ccccc5c4Cl)c(Cl)c3)c2c1` displayed a parasite size of 31 um.
In the case of `CCN1/C(=C/c2ccc3ccccc3[n+]2CC)Sc2sc3ccccc3c21` it was 32.8 um; in that of `Oc1cccc2ccc(Nc3ccccn3)nc12`, 30.2 um.
`Cc1ccc(Nc2cc(C)nc(NCc3ccccc3)n2)c(C)c1` gave a parasite size of 89.1 um.
In the case of `CC(C)c1nc(N2CCN(C(=O)Nc3ccccc3)CC2)c(C#N)c2c1COC(C)(C)C2` it was 82.2 um.
For the molecule `CCOc1ccc(CN(C(=O)COc2ccc(Cl)cc2)C(C)CCCN(CC)CC)cc1` (centres undefined), the parasite size came to 55.3 um.
In turn, `O=C(Nc1ccc(-c2nc3ccc(NC(=O)c4ccc(Br)o4)cc3[nH]2)cc1)c1ccc(Br)o1` yielded a parasite size of 101 um.
In turn, `O=C1c2ccccc2C2=Nc3ccccc3SC(c3cccc(F)c3)C12` (centres undefined) returned a parasite size of 30.1 um.
For `CCc1nc(N)nc(N)c1-c1ccc(Cl)cc1`, the parasite size was found to be 37.6 um.
Molecule `Cc1ncc(CCCCN(C)C)c2c1[nH]c1ccccc12` showed a parasite size of 133 um.
The molecule `Cc1[nH]c2c(C)cccc2c(=O)c1CC=C(Cl)Cl` yielded a parasite size of 31.2 um.
In the case of `COc1ccc(C2CC(=O)C3=C(C2)NC(C)=C(C(=O)OC2CCCC2)C3c2cccc(C)c2)cc1OC` (centres undefined) it was 66.8 um.
As to `O=C1C2=C(Nc3ccccc3SC2c2ccccc2)c2ccccc21` (centres undefined), the parasite size turned out to be 28.4 um.
In the case of `Nc1ccc(-c2nc3cc(Oc4ccc(Oc5ccc6[nH]c(-c7ccc(N)cc7)nc6c5)cc4)ccc3[nH]2)cc1` it was 116 um.
Consider `O=c1c2c([nH]c3ccccc13)CCCC2`, for which the parasite size turned out to be 39.5 um.
The value for `O=C(NC(=C(Cl)Cl)[P+](c1ccccc1)(c1ccccc1)c1ccccc1)c1ccc(F)cc1` was 26.9 um; that for `CCN(CC)CCCNc1nc2cc(OC)c(OC)cc2c2nc(-c3ccccc3)nn12` was 52.6 um.
`CCN1C(=Cc2cc[n+](C)cc2)C=Cc2cc(C)ccc21` yielded a parasite size of 25.6 um.
In the case of `COc1ccc(C2Sc3ccccc3NC3=C2C(=O)c2ccccc23)cc1` (centres undefined), the parasite size is 39.1 um.
In the case of `OCCNc1nc(Nc2ccc(F)cc2)nc2ccccc12` it was 91.1 um.
Regarding `CC1(C)N=C(N)N=C(N)N1c1ccc(Cl)cc1`, the parasite size is 33.1 um.
For `CC(C)NC(=O)c1cc(NC(=O)c2cccs2)ccc1N1CCc2ccccc2C1`, the parasite size worked out at 26.9 um.
In turn, `CCCc1c(C)[nH]c2ccccc2c1=O` came in with a parasite size of 34.5 um.
Consider `Fc1ccc(Nc2nc(NCc3ccco3)c3ccccc3n2)cc1`, for which the parasite size came to 45.3 um.
Molecule `CCCCc1c(CCC)c(=N)c2ccccc2n1C` yielded a parasite size of 58.1 um.
`C1CCC(NP2(NC3CCCCC3)=NP(NC3CCCCC3)(NC3CCCCC3)=NP(NC3CCCCC3)(NC3CCCCC3)=N2)CC1`: the parasite size was 33.8 um.
In the case of `Cc1ccc2nc3nc4c(C)cccc4c(N)c3cc2c1` it was 22.2 um; in that of `O=[N+]([O-])c1ccc(N2CCCN(C(=S)Nc3ccc(F)cc3Br)CC2)nc1`, 120 um.
With `CN1C(=O)N(C)C(NNC(N)=S)C1NNC(N)=S` (centres undefined), the parasite size was 118 um.
The value for `CN(C)c1ccc(C(C=C2C=C(c3ccccc3)C=C(c3ccccc3)O2)=C2C=CC(=[N+](C)C)C=C2)cc1` was 26.7 um; that for `N#CC1=C(N)Oc2c3c(c4ccccc4c2C1c1ccc(F)cc1)C(c1ccc(F)cc1)C(C#N)=C(N)O3` (centres undefined) was 106 um; that for `Oc1c(CN2CCN(Cc3ccc4cccnc4c3O)CC2)ccc2cccnc12` was 21.2 um.
As to `Nc1cccc(C(=O)Nc2ccc(Oc3cccc(Oc4ccc(NC(=O)c5cccc(N)c5)cc4)c3)cc2)c1`, the parasite size stood at 90.8 um.
In the case of `Clc1cccc(Nc2nc(NCc3ccco3)c3ccccc3n2)c1` it was 36.6 um; in that of `CCOC(=O)c1ccc(NCc2c(C)[nH]c3ccccc3c2=O)cc1`, 18.3 um; in that of `CCCCN(CCCC)[P+](N(CCCC)CCCC)(N(CCCC)CCCC)N(CCCC)CCCC`, 24.3 um.
Consider `COc1ccccc1Nc1nc(NCc2ccccc2)c2ccccc2n1`, for which the parasite size came out at 40.3 um.
Molecule `CC(=O)N(C)C1=C(N2CCCC2)C(=O)c2ccccc2C1=O` displayed a parasite size of 124 um.
Molecule `O=C(Nc1ccc(-c2ccc(Cl)cc2)cc1)c1cccs1` had a parasite size of 31.7 um.
Turning to `Brc1ccc(Nc2nc(NCc3ccco3)c3ccccc3n2)cc1`, the parasite size stood at 35.2 um.
The molecule `COc1ccc(C2N(Cc3ccccc3)c3ccccc3N2Cc2ccccc2)cc1` displayed a parasite size of 30.8 um.
`COc1ccc(C2CC(=O)C3=C(C2)NC(C)=C(C(=O)OC2CCCC2)C3c2ccc([N+](=O)[O-])cc2)cc1OC` (centres undefined): the parasite size is 104 um.
